Data reported in PMC11995724, “Antibiotic target discovery by integrated phenotypic and activity-based profiling of electrophilic fragments” (Cell chemical biology, 2025).
About 75 (2%) of roughly 3,200 compounds showed an effect of 50% or more. Some of the results follow.

These molecules were tested on T1, S. aureus MSSA476. Settings: relative growth, OD600, TSB; 25 µM; inhibitor.
T1 construct: MSSA476
Parameters: species or system S. aureus MSSA476 (TSB) or V. cholerae SAD30 (LB); 384-well bacterial growth screen at 25 uM, OD600 relative to DMSO control

Structure (SMILES)	% of control remaining
CC(Cl)C(=O)NCC1(n2ccnn2)CC1 (stereo not shown) [6-B20, 2-chloro-N-{[1-(1H-1,2,3-triazol-1-yl)cyclopropyl]methyl}propanamide]	103.805%
CC(Cl)C(=O)N1CCOCC1 (stereo not shown) [5-H09, 2-chloro-1-(morpholin-4-yl)propan-1-one]	98.3607%
CC(=O)Nc1ccc(NC(=O)C(C#N)=Cc2cc(F)ccc2F)cc1 [8-C12, 2-cyano-3-(2,5-difluorophenyl)-N-(4-acetamidophenyl)prop-2-enamide]	120.498%
CC(=O)N1CCC(N(Cc2cncs2)C(=O)C(C)Cl)CC1 (stereo not shown) [5-H21, N-(1-acetylpiperidin-4-yl)-2-chloro-N-[(1,3-thiazol-5-yl)methyl]propanamide]	99.0893%
COc1cc(Cl)ccc1CNC(=O)C(C#N)=Cc1ccco1 [9-E18, N-[(4-chloro-2-methoxyphenyl)methyl]-2-cyano-3-(furan-2-yl)prop-2-enamide]	117.453%
COc1ccccc1C1CSCCCN1C(=O)CCl (stereo not shown) [5-O16, 2-chloro-1-[3-(2-methoxyphenyl)-1,4-thiazepan-4-yl]ethan-1-one]	90.7104%
C=CC(=O)N(CC)Cc1cn(C)nn1 [2-O09, N-ethyl-N-[(1-methyl-1H-1,2,3-triazol-4-yl)methyl]prop-2-enamide]	106.527%
O=C(CCl)Nc1ccc(Cl)c(S(=O)(=O)N2CCCCC2)c1 [4-P14, 2-chloro-N-[4-chloro-3-(piperidine-1-sulfonyl)phenyl]acetamide]	134.159%
C=CC(=O)N(C)CC(=O)N1CCCc2ccccc21 [3-D15, N-methyl-N-[2-oxo-2-(1,2,3,4-tetrahydroquinolin-1-yl)ethyl]prop-2-enamide]	95.0805%
CC(NC(=O)CCl)C(=O)Nc1ccc(Cl)cc1 (stereo not shown) [5-G11, 2-(2-chloroacetamido)-N-(4-chlorophenyl)propanamide]	83.4244%
C=CC(=O)Nc1ccc(C(N)=O)nc1OC [1-E18, 6-methoxy-5-(prop-2-enamido)pyridine-2-carboxamide]	89.3187%
Cc1nn(C)c(C)c1CN(C(=O)CCl)C1CCCCC1C (stereo not shown) [5-A14, 2-chloro-N-(2-methylcyclohexyl)-N-[(1,3,5-trimethyl-1H-pyrazol-4-yl)methyl]acetamide]	100.546%
Cc1nn(C)c(C)c1C=C(C#N)C(=O)Nc1ccc2c(c1)OCCO2 [9-D03, 2-cyano-N-(2,3-dihydro-1,4-benzodioxin-6-yl)-3-(1,3,5-trimethyl-1H-pyrazol-4-yl)prop-2-enamide]	80.2996%
N#CC(=Cc1c(Cl)cccc1Cl)C(=O)NCCc1ccccc1 [8-B14, 2-cyano-3-(2,6-dichlorophenyl)-N-(2-phenylethyl)prop-2-enamide]	39.834%
N#CC(=Cc1ccccc1)C(=O)NC1CC1 [9-M15, 2-cyano-N-cyclopropyl-3-phenylprop-2-enamide]	104.569%
CC1CN(C(=O)C(C)Cl)CC(C)O1 (stereo not shown) [5-F04, 2-chloro-1-(2,6-dimethylmorpholin-4-yl)propan-1-one]	88.8889%
Cc1ccc(C=C(C#N)C(=O)Nc2ccccc2C(F)(F)F)cc1 [8-E16, 2-cyano-3-(4-methylphenyl)-N-[2-(trifluoromethyl)phenyl]prop-2-enamide]	122.49%
CC(Cl)C(=O)N1CC(Cc2cccs2)C1 (stereo not shown) [7-I04, 2-chloro-1-{3-[(thiophen-2-yl)methyl]azetidin-1-yl}propan-1-one]	105.495%
CC(Cl)C(=O)N1CC(C(=O)N2CCN(C)CC2)Oc2ccccc21 (stereo not shown) [7-A20, 2-chloro-1-[2-(4-methylpiperazine-1-carbonyl)-3,4-dihydro-2H-1,4-benzoxazin-4-yl]propan-1-one]	92.9356%
CC(Cl)C(=O)N1CCC(c2nc3cc(F)ccc3s2)CC1 (stereo not shown) [6-J18, 2-chloro-1-[4-(5-fluoro-1,3-benzothiazol-2-yl)piperidin-1-yl]propan-1-one]	94.2439%
C=CC(=O)NC1CCC(F)(F)CC1F (stereo not shown) [1-E11, N-(2,4,4-trifluorocyclohexyl)prop-2-enamide]	81.2308%
C=CC(=O)NCc1ccc(C(=O)N2CCC(c3nc(C)no3)C2)cc1 (stereo not shown) [2-P08, N-({4-[3-(3-methyl-1,2,4-oxadiazol-5-yl)pyrrolidine-1-carbonyl]phenyl}methyl)prop-2-enamide]	95.7354%
C=CC(=O)N1CCC(C(=O)N[C@@H]2CC[C@H](O)C2)(c2ccccc2)CC1 (racemic) [2-H16, rac-N-[(1R,3S)-3-hydroxycyclopentyl]-4-phenyl-1-(prop-2-enoyl)piperidine-4-carboxamide]	135.074%
C=CC(=O)N1CCC(C(=O)N2CCN(CC(C)C)C(=O)C2C)CC1 (stereo not shown) [2-B08, 3-methyl-1-(2-methylpropyl)-4-[1-(prop-2-enoyl)piperidine-4-carbonyl]piperazin-2-one]	92.6023%
CCCn1c(N)c(C(=O)CCl)c(=O)[nH]c1=O [10-L10, 6-amino-5-(2-chloroacetyl)-1-propyl-1,2,3,4-tetrahydropyrimidine-2,4-dione]	109.063%
O=C(CCl)Nc1cc(S(=O)(=O)N2CCOCC2)ccc1O [6-J12, 2-chloro-N-[2-hydroxy-5-(morpholine-4-sulfonyl)phenyl]acetamide]	85.7073%
C=CC(=O)N1CCC(c2nc(C3CC3)no2)C1 (stereo not shown) [2-E09, 1-[3-(3-cyclopropyl-1,2,4-oxadiazol-5-yl)pyrrolidin-1-yl]prop-2-en-1-one]	98.1723%
O=C(CCl)NCc1cnn(-c2ccccc2)n1 [6-J03, 2-chloro-N-[(2-phenyl-2H-1,2,3-triazol-4-yl)methyl]acetamide]	92.5366%
